According to PubChem BioAssay AID1159614 (National Center for Advancing Translational Sciences (NCATS), 2016):
About 65 (0.1%) of roughly 45,000 compounds were called active. Calls follow the shape of the dose curve; as a rule, active = well fitted activation curve with a large enough effect; inconclusive = small, poorly fitted or top-dose-only effect; inactive = no such curve, though single readings can be large or run the other way. The list shows a part of the results.

target: Galactocerebrosidase (Homo sapiens) (UniProt P54803); test: A Novel Cell-Based Assay to Identify Small Molecules for B -Galactocerebrosidase; settings: 145M-Twi-hGALC-G270D cells (Twitcher mouse brain line with human GALC G270D), HMU-beta-Gal fluorescence, 48 h; series mostly up to 57.5 µM; activation: at the top concentration; also: 0% is about no effect; nearly all actives have a fitted effect of over 65% in size
Chain of UniProt P54803 (P54803 whole entry, looked up): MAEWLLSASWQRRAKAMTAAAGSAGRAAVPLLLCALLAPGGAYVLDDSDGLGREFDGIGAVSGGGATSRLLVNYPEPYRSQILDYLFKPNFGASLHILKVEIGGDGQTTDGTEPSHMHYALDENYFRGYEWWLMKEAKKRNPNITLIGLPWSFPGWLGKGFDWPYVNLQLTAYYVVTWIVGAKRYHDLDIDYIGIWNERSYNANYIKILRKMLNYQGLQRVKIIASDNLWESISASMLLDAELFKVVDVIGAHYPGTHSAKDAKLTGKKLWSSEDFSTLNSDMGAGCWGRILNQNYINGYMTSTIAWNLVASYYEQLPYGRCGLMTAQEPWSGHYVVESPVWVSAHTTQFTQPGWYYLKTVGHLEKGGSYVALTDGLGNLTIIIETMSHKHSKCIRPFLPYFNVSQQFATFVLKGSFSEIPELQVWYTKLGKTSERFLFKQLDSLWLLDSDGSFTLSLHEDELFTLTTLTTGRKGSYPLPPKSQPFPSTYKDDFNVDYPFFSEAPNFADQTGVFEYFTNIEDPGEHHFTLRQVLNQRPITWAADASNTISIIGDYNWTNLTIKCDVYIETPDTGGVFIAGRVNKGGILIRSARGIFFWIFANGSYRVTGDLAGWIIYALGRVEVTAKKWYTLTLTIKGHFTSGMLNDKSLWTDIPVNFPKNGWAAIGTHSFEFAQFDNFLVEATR
Summary of the method: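 Fluorescence readout: HMU-β-gal cleavage by mutant GALC (0.1 mM final, citrate/phosphate pH 5.2 with 1 mg/mL taurocholate), stopped with carbonate/bicarbonate plus Triton X-100. Cells: murine Twitcher 145M-Twi expressing human G270D GALC; qHTS for activators.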

activation, inactive:
Cc1cccc(Cn2c(=O)n(-c3cc(C)cc(C)c3)c(=O)c3oc4ccccc4c32)c1 -7.02%, CCc1nn(CC(=O)NCc2ccccc2)c(=O)c2cccn12 -12.3%, CCOCCCn1c(=N)c(C(=O)NC2CCCCC2)cc2c(=O)n3ccccc3nc21 -15.6%, O=C(NCCS(=O)(=O)N1CCN(c2cccc(Cl)c2)CC1)C(c1ccccc1)c1ccccc1 -9.43%, COc1ccc(N(C)C(=O)Cn2cnc3sc(C)c(S(=O)(=O)N4CCN(c5ncccn5)CC4)c3c2=O)cc1 -7.6%, Cc1ccc(-c2nc3cccc(C)n3c2Nc2ccc3c(c2)OCCO3)cc1 -8.08%, CCc1ccc(NC(=O)c2cnn(-c3c(C)cccc3C)c2C2CCN(C(=O)OC(C)(C)C)CC2)cc1 -7.57%, COc1ccc(-c2cn3c(n2)sc2cc(C(=O)Nc4ccc(C)c(Cl)c4)ccc23)cc1 -11.5%, CC1=C(c2ccc(C(C)C)cc2)S(=O)(=O)N=C1N1CCC(C(=O)Nc2ccc(C)cc2)CC1 -14%, CCOc1ccc(-c2nnc(SCC(=O)Nc3ccc(C)cc3C)o2)cc1 -7.05%, COC(=O)c1ccc(NC(=O)n2ncc3c(C)cccc32)cc1 5.39%, CCOC(=O)c1[nH]c2c(c1Cc1ccccc1C)C(=O)CC(c1ccccc1)C2 (stereo unspecified) -21.9%, Cc1ccc(S(=O)(=O)N2CCN(Cc3cc(=O)n4nc(-c5ccccc5Cl)sc4n3)CC2)cc1 -11.1%, Cn1c(=O)cc(SCC(=O)NCc2ccc(F)cc2)c2cc(Cl)ccc21 -16.4%, CCOC(=O)c1c(C)[nH]c(C)c1S(=O)(=O)N1CCC(C(=O)Nc2ccccc2CC)CC1 -11.6%, Cc1c(C(=O)N2CCCCCC2)c(S(=O)(=O)Nc2cccc(C#N)c2)c(C)n1C -3.93%, Cc1cc(=O)[nH]c2nnc(SCc3ccccc3F)n12 -18.2%, O=C(NCCc1ccccc1)C(=O)NCC(c1cccs1)S(=O)(=O)c1cccs1 (stereo unspecified) -12%, CC1(C)N=C(SCc2ccc(Cl)cc2)c2ccccc2N1 6.64%, CCCCNC(=O)CSc1nc2cc3c(cc2c(=O)n1Cc1ccc(C(=O)NCCc2ccc(OC)c(OC)c2)cc1)OCO3 -9.59%, CCc1ccc(-n2nc(CO)c(C(=O)NCc3ccccc3Cl)n2)cc1 -11%, Cn1c(=O)c(=O)n(C)c2cc(NS(=O)(=O)c3ccc(Br)cc3)c(Cl)cc21 -18%, COc1ccc(NC(=O)N2CCCn3nc(C)cc32)cc1OC -13.8%, O=C(CCC(=O)N1Cc2ccccc2Oc2ncccc21)NCc1cccc(Cl)c1 -13.7%, O=C(NCc1cccc(Cl)c1)c1ccc(NC(=O)N2CCSc3ccccc32)cc1 -10%, Cc1cc2[nH]c(=O)c(=O)[nH]c2cc1S(=O)(=O)N1CCN(c2ccccc2)CC1 -6.75%, COc1ccc(Cc2nc3ccccc3n2Cc2ccccc2C)cc1 2.2%, CCn1c(C(=O)NCc2ccccc2Cl)cc2sc(Cl)cc21 -12.3%, CC1CCN(c2nc3ccc(C(=O)NC(C)C)cc3s2)CC1 6.8%, Cc1ccc(CN2C(=O)SC(Nc3ccc(Cl)cc3)C2=O)cc1 (stereo unspecified) -7.6%, Cc1ccc(Cc2c(C)nc3nc(SCC(=O)NCCC(C)C)nn3c2C)cc1 -9.58%, COc1ccc(NC(=O)Cn2c(=O)n(-c3ccc(C)cc3)c(=O)c3c2c2cc(C)ccc2n3C)cc1 -12.9%, Cc1nn(C)c(C)c1S(=O)(=O)N(CC(=O)Nc1ccc(F)cc1F)c1ccc(C(C)C)cc1 -2.77%, O=C(CN1C(=O)CCn2nc(-c3ccccc3)cc21)NCc1ccccc1 -12.9%, COc1cccc(CNC(=O)C(=O)NCC(c2ccco2)S(=O)(=O)c2ccccc2)c1 (stereo unspecified) -24.7%, O=C(Nc1onc2c1CCCC2)c1ccccc1 11%, CCC(Sc1nnc2c3ccccc3n(CC)c2n1)C(=O)Nc1ccc(NC(C)=O)cc1 (stereo unspecified) -19%, Cc1ccccc1-c1nc(CS(=O)(=O)CC(=O)NCCCc2ccccc2)c(C)o1 -2.18%, COc1ccc(-n2nc(C(=O)NCCc3ccc(OC)c(OC)c3)c3c4ccccc4n(C)c3c2=O)cc1 -18.5%, CCCOc1cccc(C2c3c(oc4ccc(F)cc4c3=O)C(=O)N2CCc2ccc(OC)cc2)c1 (stereo unspecified) -12.9%, COc1cccc(C2C(C(=O)Nc3ccccc3OC)=C(C)Nc3nc(-c4ccco4)nn32)c1 (stereo unspecified) -11.7%, O=C(Cn1cnc2onc(-c3ccc(F)cc3)c2c1=O)N1CCN(c2ccc(F)cc2)CC1 -19.4%, COc1cccc(CNC(=O)c2sc3ncccc3c2-n2c(C)ccc2C)c1OC -9.6%, O=C(Cn1nc(Cc2cccnc2)c2ccccc2c1=O)Nc1ccc(F)c(Cl)c1 -2.86%, COc1ccc(-c2noc(CSc3nc4ccc(C)cc4[nH]3)n2)cc1 -41.3%, CCC(C(=O)Nc1cc(C(F)(F)F)ccc1Cl)n1nc(C)c2sc3ccccc3c2c1=O (stereo unspecified) -1.87%, COc1ccccc1CNC(=O)Cn1nc(C)n2cccc2c1=O 7.15%, COc1ccc(C(=O)NCC(c2ccc(Cl)cc2)N2CCCCC2)cc1 (stereo unspecified) -10.7%, O=C(Nc1ccc(F)cc1F)C1CCN(S(=O)(=O)c2ccc3[nH]c(=O)ccc3c2)CC1 -13.7%, CCc1ccc(NC(=O)Cn2nnc(C(=O)NCc3ccc(C)cc3)c2N)cc1 -0.0453%, CNCCC(Oc1ccc(C(F)(F)F)cc1)c1ccccc1 (stereo unspecified) -11%, Cc1nc2n(c(=O)c1CCN1CCC(c3noc4cc(F)ccc34)CC1)CCCC2 -15.1%, CCc1ccccc1N(C)C(=O)c1cn(-c2cccc(OC)c2)c(=O)c2ccccc12 -12.2%, CC(=O)c1ccc(N2C(=O)N(Cc3ccccc3C#N)c3ccccc3S2(=O)=O)cc1 7.95%, CN(C)c1ccc(C2C=C(c3ccccc3)Nc3nnnn32)cc1 (stereo unspecified) -11.6%, CCOc1ccc(C(=O)NCC(c2ccc3c(c2)OCO3)N2CCOCC2)cc1 (stereo unspecified) -11.8%, CC1(C(=O)NC2CCCCC2)Cc2ccccc2C(=O)N1Cc1ccccc1Cl (stereo unspecified) -11.6%, COc1cc(NC(=O)CCc2nc3cccnc3n2Cc2cccs2)cc(OC)c1OC -21.2%, CCc1ccc(OCc2nc(-c3ccc(OC)c(OC)c3)no2)c(Br)c1 -8.58%, O=C(CCc1nc2cccnc2n1-c1ccccc1)Nc1ccc(Cl)c(Cl)c1 -8.99%, COc1cc(-c2noc(-c3ccc(NCc4ccco4)c([N+](=O)[O-])c3)n2)cc(OC)c1OC -8.55%, Cc1ccc(-n2ncc(C(=O)Nc3ccc4c(c3)OCO4)c2C2CCN(C(=O)OC(C)(C)C)CC2)c(C)c1 10.5%, Cc1c(C(=O)Nc2ccc(F)c(Cl)c2)oc2ccc(S(=O)(=O)N(C)C3CCCCC3)cc12 -10.7%, Cc1nn(C)c2c1c(C(F)(F)F)cc(=O)n2CC(=O)N1CCCCC1C (stereo unspecified) -9.1%, CCCCN(CC)C(=O)c1cc2c(=O)n3ccccc3nc2n1C -9.33%, CCOC(=O)c1nc(Nc2ccccc2OC)c2ccccc2n1 -11.6%, Cc1cn2c(=O)cc(COc3ccc(NC(=O)c4ccccc4C)cc3)nc2s1 8.43%, O=C(Cn1cnc2c(oc3ccccc32)c1=O)Nc1ccc(OC(F)(F)F)cc1 -17%, O=C(CN1C(=O)CC(c2ccco2)Sc2ccccc21)Nc1ccc(C(F)(F)F)cc1 (stereo unspecified) -12.9%, CC(=O)Nc1ccc(CC(=O)O)cc1 -16%, O=C(Nc1cccc(Cl)c1)N1CCC(CN2CCOCC2)CC1 -16.5%, COc1cc2[nH]c(=O)n(Cc3ccc(C(=O)N4CCN(c5cc(Cl)ccc5C)CC4)cc3)c(=O)c2cc1OC -26.6%, COc1ccc(N(Cc2cccs2)C(=O)c2ccc(C(C)(C)C)cc2)cc1 17.7%, O=C(NCC(c1ccc2c(c1)OCO2)N1CCOCC1)C(=O)Nc1ccc(F)cc1F (stereo unspecified) -2.04%, Cc1cc(C)c(NC(=O)Cn2ccn(-c3cccc(Cl)c3)c(=O)c2=O)c(C)c1 -11.5%, O=C(CCC1N=C2c3ccccc3N=C(SCc3ccccc3F)N2C1=O)NCCc1ccccc1 (stereo unspecified) -12.1%, COc1ccc(N(C(=O)c2cccc(C)c2)S(=O)(=O)c2ccc(C)cc2)cc1 -19.5%, O=C(Nc1nnc(S(=O)(=O)N2CCCc3ccccc32)s1)c1cccc(F)c1 -10.6%, COC(=O)C1CCN(CC(=O)Nc2cc(C)c3c(=O)oc4ccccc4c3n2)CC1 -7.96%, CCn1c(SCc2ccc(F)cc2Cl)nnc1-c1nonc1NC(C)=O 1.08%, Cc1ccc2c(c1)N(C(=O)C1CCN(S(=O)(=O)c3c(C)noc3/C=C/c3ccccc3F)CC1)CCO2 5.73%, CCOC(=O)c1ccc(NC(=O)c2c(C)nn(-c3ccc(F)cc3)c2-n2cccc2)cc1 -5.75%, CC(C)(C)c1ccc(S(=O)(=O)c2cn(CC(=O)Nc3ccccc3)c3ccccc3c2=O)cc1 -10.1%, Cc1cccc(CCNC(=O)c2cnc3c(C)cccn3c2=O)c1 -7.56%, Cc1ccc(CNC(=O)c2ccc3c(c2)N(Cc2ccccc2)C(=O)c2ccccc2S3(=O)=O)cc1 -9.96%, COc1ccccc1CNC(=O)Cc1csc2nc(-c3ccccc3)cn12 -14.2%, COc1ccc(OC)c(CNC(=O)Cn2nc(C)c3nn(-c4ccc(Cl)cc4)c(C)c3c2=O)c1 -15.6%, COc1ccc2oc(=O)c(-c3cn4c(n3)sc3cc(OC)ccc34)cc2c1 -22.2%, COc1ccc2c(Sc3ccccc3)c(C(=O)NCCCN3CCCCC3)[nH]c2c1 -9.33%, COc1ccc(/C=C/C(=O)Nc2nc3n(n2)C(c2ccccc2)C=C(c2ccc(Cl)cc2)N3)cc1 (stereo unspecified) -7.28%, COc1ccc(CNC(=O)CCNS(=O)(=O)c2cccc3nsnc23)cc1 -5.25%, CCOc1ccccc1CNC(=O)c1ccc(NC(=O)N2CCSc3ncccc32)cc1 -9.61%, Fc1ccc(-n2ncc3c(N4CCC(Cc5ccccc5)CC4)ncnc32)cc1 -6.2%, Clc1ccc(N2CCN(c3ncnc4c3cnn4-c3ccccc3)CC2)cc1Cl -18.6%, COc1ccc(NC(=O)c2cc(S(=O)(=O)N3CCCCCC3)cn2C)cc1Cl -3.85%, CCc1ccccc1NC(=O)Nc1nnc(N(C)Cc2ccccc2)s1 -10.1%
